Source: PubChem BioAssay AID1508623 (National Center for Advancing Translational Sciences (NCATS), 2021)
Among all 48,000 compounds or so, about 450 (0.94%) were called active. Inconclusive results (about 19%) are left out. The call rests on the fitted dose curve; in most records, active means well fitted inhibition curve with a large enough effect; inconclusive means small, poorly fitted or top-dose-only effect; inactive means no such curve, though single readings can be large or run the other way. This is one part of the list.

test: Primary qHTS for Identification of Small Molecule Inhibitors of Huntingtin Promoter Activity; settings: HEK293 HTT promoter firefly luciferase reporter (activity 0% = vehicle and -100% = no light), 24 h; series mostly up to 57.5 µM; activity change, negative = inhibition: at the top concentration; further: nearly all actives have a fitted effect of over 50% in size
In short: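 HEK293 luciferase promoter-reporter cells (2,500/well) plated 24 h, then compounds added at up to 57.5 uM final for 24 h at 37 °C. Firefly luminescence by Dual-Glo, normalized to vehicle (0%) and zero RLU (-100%).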

Compound	activity change, negative = inhibition
CCOc1ccccc1C1C(C(=O)Nc2ccccc2)=C(C)Nc2nc(-c3ccccc3)nn21 (stereo unspecified)	inactive: -9.15%
COc1ccccc1OCc1nc2ccccc2n1Cc1ccccc1	inactive: -5.95%
CC(C)NC(=O)CSc1cn(CC(=O)N2CCCCCC2)c2ccccc12	inactive: -23.7%
Cc1ccc(-c2nnc3c4ccccc4c(-c4ccccc4)nn23)cc1	inactive: -4.46%
CCOc1ccccc1NCc1nnc2n1CCCCC2	inactive: -8.05%
COc1ccc(N2CCN(C(=O)c3cnc(N4CCOCC4)c4ccccc34)CC2)cc1	inactive: -25.4%
COc1ccc(C)cc1NC(=O)c1nnn(CC(=O)Nc2c(C)cccc2C)c1N	inactive: -4.53%
CCc1cccc(NC(=O)c2cc3c(=O)oc4ccc(C)cc4c3s2)c1	inactive: -5.49%
COc1ccc(CNC(=O)C(CC(C)C)NS(=O)(=O)c2ccc3c(c2)oc(=O)n3C)cc1 (stereo unspecified)	inactive: -18.1%
Cc1ccc(S(=O)(=O)c2cn(Cc3ccccc3)c3cc(N4CCCC4)c(F)cc3c2=O)c(C)c1	inactive: -4.93%
CSc1nnc(NC(=O)c2cc(=O)c3cc(C)c(C)cc3o2)s1	inactive: -1.68%
CCOc1c(CNCCSc2nnnn2C)cccc1OC	inactive: -1.54%
Cc1cccc(C)c1NC(=O)C(=O)NCC(c1ccc2c(c1)OCO2)N1CCN(C)CC1 (stereo unspecified)	inactive: -9.92%
COc1ccc(OC)c([C@@H]2Nc3ccc(C(=O)O)cc3[C@@H]3C=CC[C@@H]32)c1	inactive: -24.3%
CCc1cccc(NC(=O)C2CCCN2S(=O)(=O)c2ccc3nc(-c4ccccc4)[nH]c3c2)c1 (stereo unspecified)	inactive: -29.6%
Cc1ccc(Cn2c(=O)n(Cc3ccc(C(=O)NC4CCN(Cc5ccccc5)CC4)cc3)c(=O)c3ccccc32)cc1	inactive: -11.1%
CC(=O)c1ccc(NC(=O)CCn2cccn2)cc1	inactive: 4.81%
CN1C(=O)Cc2cc(S(=O)(=O)NCc3ccccc3Cl)ccc21	inactive: 25.3%
O=C(c1ccc(Br)cc1)N(Cc1ccco1)c1ccccn1	inactive: 4.34%
Cc1ccc(-n2c(C)nc3c(cnn3-c3ccccc3)c2=O)cc1	inactive: -9.7%
CCCc1ccc(OCc2ccc(C(=O)Nc3ccccc3C(=O)OC)o2)cc1	inactive: 8.63%
CCc1ccc(NC(=O)Cn2c(=O)n(-c3cccc(OC)c3)c(=O)c3c(C)c(C(=O)N(C)C)sc32)cc1	inactive: 3.25%
Cc1ccc2oc(C(=O)N3CCC(c4nc5ccccc5s4)CC3)c(C)c2c1	inactive: -18.4%
COc1ccc(-c2nc3n(n2)C(c2ccccc2OC)C(C(=O)Nc2cccnc2)=C(C)N3)cc1 (stereo unspecified)	inactive: -6.15%

Compound	activity change, negative = inhibition
CCOc1ccc(C(=O)Nc2ccc3oc(-c4ccc(C)cc4C)nc3c2)cc1Br	inactive: 9.65%
CCOc1ccc(NC(=O)Cn2c(=O)n(CCCCC(=O)NCCc3ccc(Cl)cc3)c(=O)c3ccccc32)cc1	inactive: -1.94%
CCc1ccccc1NC(=O)CC1NCCNC1=O (stereo unspecified)	inactive: 2.18%
O=C(Nc1cccc(Cl)c1)N1CC2CCCN2c2ccccc21 (stereo unspecified)	inactive: -23.3%
Cc1ccc(-n2c(=O)c3ccc(C(=O)NCc4ccco4)cc3n(CC(=O)Nc3ccc(C)c(F)c3)c2=O)cc1	inactive: -11.5%
COc1ccc(CNC(=O)c2ccc3c(c2)nc2n3CCCCC2)cc1	inactive: 47.8%
Cc1ccc(NS(=O)(=O)c2ccc3c(c2)N(C)C(=O)CC(=O)N3C)cc1Cl	inactive: -22.1%
CCC1CN(C(=O)N2CCC(C(=O)N3CCN(c4ccccc4)CC3)CC2)c2ccccc2O1 (stereo unspecified)	inactive: -22.8%
CCOc1ccc(-n2c(SCC(=O)NCc3ccccc3)nc3n[nH]c(C)c3c2=N)cc1	inactive: -18.4%
Nc1nnc(-c2cccc(Cl)c2Cl)c(N)n1	inactive: -0.774%
O=S(=O)(NCC(c1cccs1)S(=O)(=O)c1ccccc1)c1ccccc1 (stereo unspecified)	inactive: -23.6%
Cc1cc(C)n(C(C)CC(=O)Nc2ccc(Cl)cc2C)n1 (stereo unspecified)	inactive: -10%
COc1cccc(CN2C(=O)C3(SCC(=O)N3c3ccc(C)c(Cl)c3)c3ccccc32)c1 (stereo unspecified)	inactive: -33.3%
CC[C@@]1(O)C(=O)OCc2c1cc1n(c2=O)Cc2cc3c(CN(C)C)c(O)ccc3nc2-1	inactive: -28.1%
Cc1cccc(C(=O)n2nc(C)c(S(=O)(=O)N3CCOCC3)c2C)c1	inactive: -16.6%
CCOc1ccc(Sc2cc(C(=O)NCc3ccc(C)cc3)c3ccccc3n2)cc1	inactive: -13.4%
COCCCn1c(=N)c(C(=O)NC2CCCC2)cc2c(=O)n3cccc(C)c3nc21	inactive: 1.65%
CCOc1ccccc1NS(=O)(=O)c1cc2[nH]c(=O)c(=O)[nH]c2cc1C	inactive: 1.02%
COc1ccc(Cn2ccc3nc(C)c(C(=O)Nc4cc(OC)c(OC)c(OC)c4)cc3c2=O)cc1	inactive: -22.1%
COC(=O)c1scc(-c2ccc(C)cc2)c1S(=O)(=O)N1CCN(c2ccc(F)cc2)CC1	inactive: -24.9%
Nc1c(C(=O)NCc2cccs2)nnn1CC(=O)Nc1cccc(F)c1	inactive: -6.22%
CCC1CCCCN1C(=O)c1c[nH]c2ccc(S(=O)(=O)Nc3cccc(OC)c3)cc2c1=O (stereo unspecified)	inactive: -2.58%
Cc1cc(C)cc(-n2ccn(CC(=O)c3ccc(F)cc3)c(=O)c2=O)c1	inactive: -17.3%
CCOc1ccc(NC(=O)CCc2c(C)nc3cc(-c4ccccc4OC)nn3c2C)cc1	inactive: -25%

Compound	activity change, negative = inhibition
COC(=O)c1ccc(CSc2c(C(C)C)cnc3c2c(=O)n(C)c(=O)n3C)cc1	inactive: -0.8%
O=C(O)c1ccc(NS(=O)(=O)c2ccc(Cl)c(C(=O)Nc3ccccc3)c2)cc1	inactive: -0.694%
Cc1ccc(N(C)S(=O)(=O)c2ccc3[nH]c(=O)ccc3c2)cc1	inactive: -22.2%
O=C(c1ccc(CS(=O)(=O)c2ccc(Br)cc2)o1)N1CCN(c2ccc(F)cc2)CC1	inactive: -25.7%
Cc1ccc(NC(=O)c2sc3ncnc(N(C)C4CCCCC4)c3c2C)c(C)c1	inactive: -0.881%
N#C/C(=C\c1ccc(OCc2ccc(Cl)cc2Cl)cc1)c1nc2ccccc2[nH]1	inactive: -24.3%
COc1ccc(NC(=O)c2cnn(-c3ccc(C)c(C)c3)c2C2CCNCC2)cc1OC	inactive: -3.78%
Cc1cccc(C2=Nc3ccccc3N=C(c3cc(Cl)ccc3O)C2)c1	inactive: -21.9% [at 11.5 µM]
Cc1oc2c(cc(NS(=O)(=O)c3ccc(C(C)C)cc3)c3ccccc32)c1C(=O)OCc1ccccc1	inactive: -8.27%
COc1ccc(OC)c(CNC(=O)c2cc3c(Cl)nc4ccccc4c3s2)c1	inactive: -14%
Cc1cccc(NC(=O)/C(C#N)=C/c2ccco2)c1	inactive: 46.9%
CCCNC(=O)Cn1nc(-c2ccc(OC)cc2)c2cnc3ccc(F)cc3c21	inactive: -20.7%
CCOc1ccc(-n2c(C)nc3cc(C(=O)NC4CCCC4)ccc32)cc1	inactive: -12%
CCN1CCN(c2ccc(Nc3cc(N(C)C(=O)Nc4c(Cl)c(OC)cc(OC)c4Cl)ncn3)cc2)CC1	inactive: 3.06%
O=C(O)/C=C(\CC(=O)O)C(=O)O	inactive: 11.9%
COc1ccc(CNC(=O)Cn2c(=O)n3nc(-c4ccc(OC)cc4)nc3c3ccccc32)cc1	inactive: 24.4%
COc1ccc(-c2noc(CSc3nnc(C)n3-c3ccc(F)cc3)n2)cc1	inactive: -17.5%
COc1ccc(NC(=O)C(c2ccccc2)N(C)C(=O)/C=C\c2ccc3c(c2)OCO3)cc1 (stereo unspecified)	inactive: -25%
COc1ccc(-c2c(C)nn3c(C(F)(F)F)cc(-c4ccc(C)cc4)nc23)cc1	inactive: -27.5%
Cc1ccccc1OCC(=O)Nc1c(C(=O)Nc2ccccc2F)oc2ccccc12	inactive: -19%
COC(=O)c1cnc(N2CCN(c3ccc(OC)cc3)CC2)c2ccccc12	inactive: -27.6%
CCCCc1ccc(NC(=O)CSc2nc3ccccc3nc2N2CCCCC2)cc1	inactive: 2.66%
CCCNC(=O)CCc1c(C)nc2nc(CNC(=O)c3ccccc3)nn2c1C	inactive: -9.77%
Cc1ccc(F)cc1NC(=O)CSc1nc(-c2cccs2)cc(C(F)(F)F)n1	inactive: -6.72%

Compound	activity change, negative = inhibition
Cc1ccc(NC(=O)CN2C(=O)CC(c3ccco3)Sc3ccccc32)cc1Cl (stereo unspecified)	inactive: -13.7%
COc1ccc(NC(=O)c2oc3ccccc3c2NC(=O)c2cc3ccccc3o2)c(OC)c1	inactive: -0.657%
COc1cc(OC)c(NC(=O)Nc2ccc3c(c2)N(C)C(=O)c2ccccc2S3)cc1Cl	inactive: -27.6%
Cc1ccc(-c2onc(C)c2C)cc1S(=O)(=O)N1CCN(c2ccccc2F)CC1	inactive: -5.35%
COc1cc(OC)cc(-n2c(=O)c3sccc3n(Cc3ccc(F)cc3)c2=O)c1	inactive: -4.5%
COc1cccc(NC(=O)CCNC(=O)Cn2cnc3ccccc3c2=O)c1	inactive: 50% [at 11.5 µM]
CCn1c2ccccc2c2cc(CN3CCN(Cc4cccc(Cl)c4)CC3)ccc21	inactive: -22.5%
COc1cc(C(CC(=O)NCc2ccccc2Cl)N2Cc3ccccc3C2=O)cc(OC)c1OC (stereo unspecified)	inactive: -20.6%
CCOc1ccccc1CNC(=O)c1ccc(-n2c(C)cc3c2CCC(C)C3)cc1 (stereo unspecified)	inactive: 14.3%
COC(=O)c1ccccc1NC(=O)CCCn1nc(C)c2c(C)n(-c3ccccc3)nc2c1=O	inactive: 5.01%
Cc1ccc(C(=O)O)cc1NC(=O)c1nsc2ccccc12	inactive: 3.71%
COc1ccc(CCNC(=O)CN2C(=O)COc3ccc(S(=O)(=O)N4CCCC4)cc32)cc1OC	inactive: -15.5%
Cc1ccc(Cl)cc1N1CCN(c2nc3ccccc3c3nc(-c4cccnc4)nn23)CC1	inactive: -10%
Cc1ccc(CNC(=O)c2cc(-c3ccc(C)c(C)c3)nc3ccccc23)cc1	inactive: -9.09%
COC(=O)c1sc(N2C(=O)c3oc4ccc(C)cc4c(=O)c3C2c2ccc(OC)cc2)nc1C (stereo unspecified)	inactive: -10.1%
Cc1cc(Cl)ccc1NC(=O)CSc1nc2c(c(=O)[nH]1)CCC2	inactive: -12.4%
Cc1ccc(NC(=O)C(=O)NCC(c2cccnc2)N2CCN(Cc3ccccc3)CC2)cc1Cl (stereo unspecified)	inactive: -17.9%
CC1CCN(C(c2ccccc2)c2sc3nc(-c4ccco4)nn3c2O)CC1 (stereo unspecified)	inactive: -20%
O=C(CSc1nc(-c2ccccc2)cn1-c1ccccc1F)Nc1ccc(F)cc1	inactive: -24.7%
Cc1ccc(Nc2cc(C(=O)NCCc3ccccc3)c3ccccc3n2)c(C)c1	inactive: 0.267%
COc1cc(NC(=O)CN2CCN(S(=O)(=O)c3ccc(Br)cc3)CC2)cc(OC)c1	inactive: -10.9%
COc1ccc(NC(=O)CSc2nc(-c3cc(OC)c(OC)c(OC)c3)[nH]c2-c2ccc(F)cc2)cc1	inactive: -23.9%
O=C(Cn1nc(-c2ccc(Cl)cc2)c2ccccc2c1=O)Nc1cccc(Br)c1	inactive: 0%
Cc1ccccc1Cn1c(COc2ccc(Cl)cc2)nc2ccccc21	inactive: -15.5%
